Converted amounts (≈) assume the structure as drawn. Read-outs that look alike come from different tables or passages of the source.
Assays:
[1] = system: luminescent methicillin-sensitive S. aureus (MSSA); conditions: for minimum inhibitory concentration (MIC): mixed with alginate TAG, luminescence measured 16 hours after addition of the bacteria
[2] = system: methicillin-sensitive S. aureus (MSSA)
[3] = system: luminescent methicillin resistant Staphylococcus aureus (MRSA); conditions: for bacterial load by culture of excised thigh muscle: 24 hours post-inoculation
[4] = FIG. 6
[5] = Acute 7-day MTD study in Sprague-Dawley rats (prophetic); type: in vivo; conditions: expected result, intravenous
Experimental: An acute (single-dose) 7-Day Up or down maximum tolerable dose (MTD) study can be performed in Sprague-Dawley Rats for 3 rounds for TCO-PLX3397 and PLX3397 administered intravenously. Results from this study will help inform dosage levels for subsequent single-dose and repeat-dose studies based on tolerability. Initial dosage is based on the previously examined intravenous concentration of PLX3397 of 1 mg/kg. This study is envisioned to employ 3 groups of 3 male and 3 female rats for each compound (36 animals total). […] Based on the reported side effects of PLX3397, rats may also be monitored for fatigue and diarrhea and blood draws (200 μL) performed daily to screen for anemia, hyponatremia, and neutropenia. After 7 days, animals may be sacrificed and gross tissue histology to assay for tissue damage and inflammation. At the end of 3 rounds, the highest dose with no overt toxicities is deemed the MTD. The number of animals to be used in each group is consistent with standard protocols for toxicokinetic profiling in rats.

[6] = system: collagen-induced arthritis; experiment: Collagen-induced arthritis model in Lewis rats (prophetic); type: in vivo; conditions: expected result, combination with TAG
[7] = system: local spontaneous adenocarcinoma; type: in vivo; conditions: canine; for tumor response: longest tumor diameter by CT scans
From the text: […]. A tumor-bearing dog was given multiple treatments of Doxorubicin and Shasqi Tx (gel and doxorubicin pro-drug). […] Longest tumor diameter determined by CT scans.
The safety profile for tetrazine-modified gel injected locally, followed by TCO-doxorubicin pro-drug injected intravenously translates across species, including large animals.

[8] = system: fibrosarcoma (HT-1080) xenografts; experiment: HT-1080 fibrosarcoma xenograft in athymic nude mice with alginate TAG; conditions: for median tumor size: alginate TAG
[9] = system: MCF-7 (human breast cancer cell line) xenograft; experiment: MCF-7 breast cancer xenograft in mice with pre-injected gel; type: in vivo
Experimental: A releasable form of doxorubicin was synthesized and tested in mice growing a xenograft of MCF-7 (human breast cancer cell line) or a xenograft of HT1080 (human soft tissue sarcoma). In a breast cancer model, mice (n=4) received two doses of doxorubicin or TCO-doxorubicin at 5 mg/kg every three days in the presence of pre-injected gel at the xenograft site.

[10] = Serum and tissue levels after TCO-Dox or Dox IV in gel-injected Balb/C mice; type: in vivo; conditions: 5 minutes post-infusion, tetrazine-modified gel injected locally
Experimental: FIGS. 18A and 18B is a set of graphs showing that Shasqi Tx (Tetrazine-modified gel injected locally; followed by TCO-doxorubicin pro-drug injected intravenously) reduces systemic exposure to cytotoxic chemotherapy. Mice injected with tetrazine-modified gel are given TCO-Dox or Doxorubicin intravenously. Serum and tissues are harvested 5 min post-injection to reflect Cmax analyzed by LC-MS/MS. […] Shasqi Tx, n=1; Dox, error bar represents SD of n=2. […] Mean±SEM of n=2.
Balb/C mice injected with tetrazine-modified gel were given TCO-Dox or Dox IV, and serum and organs were harvested 5 minutes post-infusion and analyzed.

[11] = human plasma, in vitro, preliminary
[12] = mouse plasma, in vitro, preliminary
[13] = within 24 hours, Cy5-modified alginate TAG, 69 μmole/kg IV, mice
[14] = thirty days after the last treatment dose (60 dpi)
[15] = two weeks after the last treatment dose (40 dpi), doxorubicin 3 x 14 μmoles/kg every 4 days, pro-drug 14 μmoles/kg daily for 10 days

For CN[C@H](CC(C)C)C(=O)N[C@H]1C(=O)N[C@@H](CC(N)=O)C(=O)N[C@H]2C(=O)N[C@H]3C(=O)N[C@H](C(=O)N[C@H](C(=O)O)c4cc(O)cc(O)c4-c4cc3ccc4O)[C@H](O)c3ccc(c(Cl)c3)Oc3cc2cc(c3O[C@@H]2O[C@H](CO)[C@@H](O)[C@H](O)[C@H]2O[C@H]2C[C@](C)(NC(=O)OC3/C=C/CCCCC3)[C@H](O)[C@H](C)O2)Oc2ccc(cc2Cl)[C@H]1O (stereo partly shown) [Vanco-R-TCO], the “inhibition of bacterial growth” value ([1]; 2.0 nmoles combined with regular (unmodified) alginate gel) was “did not inhibit bacterial growth”, the “in vitro activity lower than regular vancomycin” value ([1]; MIC with TAG, 2.0 vs. 0.5 nmoles/mL) was 4 fold and the “minimum inhibitory concentration (MIC)” value [1] was 2.0 µM (≈ 3.2 µg/mL). The “bacterial activity by isothermal microcalorimetry” value ([2]; combination with TAG) was “eliminated observable bacterial activity”, the “bacterial activity by isothermal microcalorimetry” value ([2]; control alginate) was “much-reduced affect” and the “bacterial load by culture of excised thigh muscle” value ([3]; Cy5-modified alginate TAG, 69 μmole/kg IV, mice) was “equivalent efficacy to regular vancomycin”. The “bacterial load by culture of excised thigh muscle” value ([3]; Cy5-modified alginate TAG, 69 μmole/kg IV, mice, listed as TCO-vanco) was “reduce bacterial load greater than the control”, the “luminescent bacteria by IVIS in vivo imaging” value (shortened to “luminescent bacteria by IVIS”) ([3]; control experiment: (control) gel and Vanco-R-TCO) was “luminescent bacteria were observed” and the “luminescent bacteria by IVIS” value [3, 13] was “undetectable”. The “luminescent bacteria by IVIS” value ([3]; within 24 hours, Cy5-modified alginate TAG, 69 μmole/kg IV, mice, listed as TCO-vanco) was “eliminate luminescent bacteria within 24 h”.
In the case of COc1cccc2c1C(=O)c1c(O)c3c(c(O)c1C2=O)CC(O)(C(=O)CO)CC3OC1CC(NC(=O)OC2C=CCCC(C)(C(=O)N3CCOCC3)CC2)C(O)C(C)O1 (stereo not shown) [Example 1, Morpholine-TCO-Doxorubicin], the “increase in aqueous solubility relative to TCO-doxorubicin” value [4] is reported as “over 70 fold” and the “solubility in saline relative to regular TCO-dox” value ([4]; saline) is reported as “over 70 times”.
For O=C(OC1/C=C/CCCCC1)n1cc(Cc2ccc(NCc3ccc(C(F)(F)F)nc3)nc2)c2cc(Cl)cnc21 (stereo not shown) [Example 8, TCO-pexidartinib], the “side effects and MTD versus PLX3397” value [5] was “reduced side effects and a much higher MTD” and the “arthritic symptoms (disease score and histology)” value [6] was “dramatic reduction of arthritic symptoms”.
In the case of COc1cccc2c1C(=O)c1c(O)c3c(c(O)c1C2=O)C[C@@](O)(C(=O)CO)C[C@@H]3O[C@H]1C[C@H](N)[C@H](O)[C@H](C)O1 [doxorubicin, reference compound], the body weight change [7] is reported as “drop in body weight”, the tumor response [7] is reported as “disease progression (tumor growth)” and the “reticulocyte counts (myelosuppression)” value (3 days after the end of therapy, alginate TAG) is reported as “dramatic decrease in reticulocytes”. For the same molecule, the “loss of body weight” value (HT-1080 xenograft mice, FIG. 4C) was “about 20 % of body weight”, the median tumor size [8, 14] was “greater than 2000 mm^3” and the median tumor size [8, 15] was “undetectable”.
With COc1cccc2c1C(=O)c1c(O)c3c(c(O)c1C2=O)CC(O)(C(=O)CO)CC3OC1CC(NC(=O)OC2C=CCCCCC2)C(O)C(C)O1 (stereo not shown) [TCO-doxorubicin] the “greater tumor reduction compared to regular doxorubicin” value ([9]; after two doses at 5 mg/kg every three days, pre-injected gel) was 40%, the “tumor response compared with vehicle control” value ([9]; two doses at 5 mg/kg every three days, pre-injected gel at xenograft site, p<0.05) was “significant tumor shrinkage” and the “amount of activated Dox in heart, liver and gel relative to control treatment” value [10] was “reduced the amount of activated Dox in the heart and liver, yet increased the amount in the gel”. For the same molecule, the body weight change [7] was “gain in body weight”, the “cardiotoxicity by serial echocardiogram” value ([7]; despite nearly 12-fold the lifetime MTD) was “did not reveal any signs of cardiotoxicity” and the tumor response [7] was “reduction in tumor size followed by stable disease”. For the same molecule, the side effects ([7]; multiple cycles with tetrazine-modified gel) was “no major side effects”, the “cumulative dose given relative to maximum lifetime dose (MTD) of Dox without major side effects” value ([7]; listed as TCO-Dox pro-drug) was roughly 12 fold and the “overt signs of toxicity, including weight loss or changes in coat texture” value (14 μmoles/kg daily for 10 days with alginate TAG) was “did not show any overt signs of toxicity”. For the same molecule, the half-life in plasma [11] was 6.8 h, the half-life in plasma [12] was 19.3 h and the “tumor volume versus untreated mice” value ([8]; local injection of unmodified alginate (no TAG)) was “No differences in tumor volume”. The median tumor size [8, 14] was “remained undetectable” and the median tumor size [8, 15] was “undetectable”.
With CN[C@H](CC(C)C)C(=O)N[C@H]1C(=O)N[C@@H](CC(N)=O)C(=O)N[C@H]2C(=O)N[C@H]3C(=O)N[C@H](C(=O)N[C@H](C(=O)O)c4cc(O)cc(O)c4-c4cc3ccc4O)[C@H](O)c3ccc(c(Cl)c3)Oc3cc2cc(c3O[C@@H]2O[C@H](CO)[C@@H](O)[C@H](O)[C@H]2O[C@H]2C[C@](C)(N)[C@H](O)[C@H](C)O2)Oc2ccc(cc2Cl)[C@H]1O [vancomycin, reference compound] the “minimum inhibitory concentration (MIC)” value [1] was 0.5 µM (≈ 0.725 µg/mL), the “luminescent bacteria by IVIS” value [3, 13] was “undetectable” and the “luminescent bacteria by IVIS” value ([3]; within 24 hours, Cy5-modified alginate TAG, 69 μmole/kg IV, mice, listed as vanco) was “eliminate luminescent bacteria within 24 h”.
